Laboratory results: PubChem BioAssay AID485294 (National Center for Advancing Translational Sciences (NCATS), 2010)
In all, about 370,000 compounds went through this assay and about 150 (0.041%) were called active. Inconclusive means that the source gave no clear call. Such entries were picked first, then a sample of the others. Calls follow the shape of the dose curve; as a rule, active = well fitted inhibition curve with a large enough effect; inconclusive = small, poorly fitted or top-dose-only effect; inactive = flat fitted curve, though single readings scatter. No potency is given beside an inconclusive call; the fits are too rough.
Also: nearly all actives have a fitted effect of over 25% in size.
Potency is read from the fitted curve at half-maximal effect; tags tell the direction and shape of the fitted curve.

Each molecule was assayed against Beta-lactamase (Escherichia coli (strain K12)) (UniProt P00811) (assay: qHTS Inhibitors of AmpC Beta-Lactamase (assay with detergent)). Conditions: AmpC hydrolysis of nitrocefin, absorbance 480 nm, 0.01% Triton; series mostly up to 114 µM.
Sequence of UniProt P00811 (P00811 whole entry, looked up): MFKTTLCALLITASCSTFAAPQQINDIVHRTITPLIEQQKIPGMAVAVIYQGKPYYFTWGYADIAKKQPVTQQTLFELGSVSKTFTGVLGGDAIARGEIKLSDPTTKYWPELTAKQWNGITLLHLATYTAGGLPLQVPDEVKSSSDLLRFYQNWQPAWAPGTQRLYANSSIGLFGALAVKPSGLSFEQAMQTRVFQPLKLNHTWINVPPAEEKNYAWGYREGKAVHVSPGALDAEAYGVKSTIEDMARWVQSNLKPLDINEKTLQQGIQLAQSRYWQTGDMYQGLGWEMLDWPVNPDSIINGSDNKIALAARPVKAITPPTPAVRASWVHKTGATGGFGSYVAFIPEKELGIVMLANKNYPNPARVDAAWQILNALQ
How it was run: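 AmpC (5.3 nM in the dispensed reagent) in 20 mM phosphate pH 7.0 with 0.01% (detergent screen) or 0.0001% Triton X-100 was preincubated with compounds for 15 min at room temperature. Nitrocefin was then added from an 800 uM solution, and hydrolysis was followed at 480 nm.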
With `Cc1ccc(OCC(=O)Nc2ccccc2[N+](=O)[O-])c(Br)c1` the Potency was inconclusive [inhibitor, full curve, poor fit].
`O=c1cc(CSc2n[nH]c(=O)n2C2CC2)c2ccc(O)cc2o1` was tested, and the Potency was “inactive”.
`COc1cc(C)c(Br)cc1S(=O)(=O)NCc1cccs1` was tested, and the Potency was “inactive”.
For `CCCCn1c(N)c(N(CCOC)C(=O)c2cc(-c3ccco3)nc3ccccc23)c(=O)[nH]c1=O`, the Potency was inconclusive [inhibitor, full curve, poor fit].
`COc1ccc(OC)c(NC(=O)CSc2nc(=O)n(Cc3ccccn3)c3c2CCC3)c1` was tested, and the Potency was inconclusive [inhibitor, full curve, poor fit].
`Cc1ccc(S(=O)(=O)Nc2cccc(C(=O)NCC(c3ccco3)N(C)C)c2)cc1F` (stereo not drawn) was tested, and the Potency was inconclusive [inhibitor, full curve, poor fit].
`Oc1ccc(Cl)cc1-c1cc(-c2ccccc2)n[nH]1` was tested, and the Potency was inconclusive [inhibitor, full curve].
With `COc1ccc(NC(=O)c2cc(-c3ccco3)on2)c(OC)c1` the Potency was “inactive”.
For `CC(c1ccccc1)C(CC(=O)O)C(=O)Nc1ccc(Cl)c(Cl)c1` (stereo not drawn), the Potency was inconclusive [inhibitor, full curve, poor fit].
`Cc1c(Cl)cccc1-c1ccc(C(=O)N2CCN(c3ccc([N+](=O)[O-])cc3)CC2)o1` was tested, and the Potency was inconclusive [inhibitor, full curve, poor fit].
`COc1cccc(C(=O)NCCS(=O)(=O)NCc2cccnc2)c1` was tested, and the Potency was inconclusive [inhibitor, partial curve].
`Fc1ccc(NC(=S)NCc2cccs2)cc1` was tested, and the Potency was inconclusive [inhibitor, full curve].
With `CC(C)CCNC(=O)NC(=O)COc1c(F)c(F)cc(F)c1F` the Potency was inconclusive [inhibitor, single point].
`Cc1nnc(NC(=O)c2ccccc2Br)s1` was tested, and the Potency was inconclusive [inhibitor, partial curve].
For `COc1ccc(NC(=O)NCCCCc2ccccc2)c(OC)c1`, the Potency was “inactive”.
In the case of `CC(=O)Nc1cccc(NC(=O)c2ccc([N+](=O)[O-])cc2Cl)c1`, the Potency is reported as inconclusive [inhibitor, full curve, poor fit].
For `Cc1ccc2c(CC(=O)N3CCN(S(=O)(=O)c4ccccc4)CC3)coc2c1`, the Potency was inconclusive [inhibitor, partial curve].
For `Cc1ccc(S(=O)(=O)NCC2CCC(C(=O)NCCCN3CCCC3=O)CC2)cc1` (stereo not drawn), the Potency was inconclusive [inhibitor, full curve, poor fit].
In the case of `O=C(O)c1cc2cccc(S(=O)(=O)N3CCCCC3)c2cc1O`, the Potency is reported as inconclusive [inhibitor, partial curve, poor fit].
For `COc1nc(N)nc(N2CCOCC2)n1`, the Potency was inconclusive [inhibitor, full curve].
For `O=C(O)/C=C/C(=O)N1CCN(c2ccccc2F)CC1`, the Potency was inconclusive [inhibitor, partial curve].
With `S=C1NCCOCCOCCOCCNC(=S)N2CCOCCOCCN1CCOCCOCC2` the Potency was inconclusive [inhibitor, single point].
In the case of `COc1ccc(/C(N)=N/OC(=O)CCC2CCCC2)cc1OC`, the Potency is reported as “inactive”.
In the case of `CSc1ccccc1NC(=O)COc1ccc(Cl)cc1C`, the Potency is reported as inconclusive [inhibitor, partial curve, poor fit].
In the case of `O=C(NCCS(=O)(=O)NCc1ccc(F)cc1)c1ccc2c(c1)OCO2`, the Potency is reported as inconclusive [inhibitor, full curve, poor fit].
With `NCCc1nnc(SCc2ccccc2)o1` the Potency was inconclusive [inhibitor, full curve, poor fit].
`Cc1cc(=O)oc2cc(OCc3cc4c(cc3Cl)OCO4)ccc12` was tested, and the Potency was inconclusive [inhibitor, single point].
For `Cc1ccc(C(=O)NCC(=O)OCc2nnc(-c3ccccc3)o2)cc1`, the Potency was inconclusive [inhibitor, full curve].
With `O=C(Nn1cnnc1)c1ccccc1-c1ccccc1` the Potency was inconclusive [inhibitor, full curve].
`COc1cccc(C(=O)NC2CCCc3c2cnn3-c2cc(C)cc(C)c2)c1` (stereo not drawn) was tested, and the Potency was inconclusive [inhibitor, full curve, poor fit].
In the case of `COc1ccc(C2N3CC4(C)CN2CC(C)(C3)C4=O)cc1OC` (stereo not drawn), the Potency is reported as inconclusive [inhibitor, full curve, poor fit].
`Cc1ccc(NC(=O)CN2C(=O)NC3(CCCC3)C2=O)cc1S(=O)(=O)N1CCCCC1` was tested, and the Potency was inconclusive [inhibitor, single point].
With `O=S(=O)(Nc1cccc2ncccc12)c1cccs1` the Potency was “inactive”.
In the case of `Cc1ccc(NC(=O)c2ccccc2OCC(=O)c2ccc(F)cc2)cc1`, the Potency is reported as inconclusive [inhibitor, single point].
For `N#Cc1c(-c2ccccc2)cc(-c2ccccc2)nc1SCCC(=O)O`, the Potency was inconclusive [inhibitor, full curve, poor fit].
With `COc1ccccc1CCNC(=O)CCn1c(=O)c2cccn2c2ccc(F)cc21` the Potency was “inactive”.
For `Cc1ccccc1NS(=O)(=O)c1ccc(C(=O)N2CCCCCC2)cc1`, the Potency was inconclusive [inhibitor, full curve, poor fit].
`CCN1C(=O)c2cccc3c(S(=O)(=O)NCc4cccnc4)ccc1c23` was tested, and the Potency was “inactive”.
In the case of `Clc1ccc2nc(CN3CCCCC3)cn2c1`, the Potency is reported as inconclusive [inhibitor, full curve, poor fit].
For `O=c1cc(-c2ccccc2)nc(N2CCCCC2)[nH]1`, the Potency was inconclusive [inhibitor, full curve, poor fit].
`CCCCC(CC)CNCC(O)c1ccccc1` (stereo not drawn) was tested, and the Potency was inconclusive [inhibitor, full curve, poor fit].
`O=C1/C(=C\c2cc([N+](=O)[O-])ccc2O)SC(=S)N1Cc1ccc(Cl)cc1` was tested, and the Potency was “inactive”.
`Cc1ccc(S(=O)(=O)N2CCN(C(=O)COC(=O)CSc3ccc(C)c(C)c3)CC2)c(C)c1` was tested, and the Potency was inconclusive [inhibitor, partial curve, poor fit].
